Reference: PMC4336329 (PLoS ONE, 2015)
The whole screen tested about 310,000 compounds, of which about 14,000 (4.5%) showed an effect of 50% or more. Effects have a minus sign here. Some of the results follow.

Each compound was assayed against human ether-à-go-go-related gene (hERG) potassium channel (human, UniProt Q12809) (assay: primary screen, population patch clamp on CHO cells stably expressing hERG).
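Also: peak tail current of the secondary pulse compared with the same well before compound.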

Chain of human ether-à-go-go-related gene (hERG) potassium channel (Q12809 whole entry, looked up): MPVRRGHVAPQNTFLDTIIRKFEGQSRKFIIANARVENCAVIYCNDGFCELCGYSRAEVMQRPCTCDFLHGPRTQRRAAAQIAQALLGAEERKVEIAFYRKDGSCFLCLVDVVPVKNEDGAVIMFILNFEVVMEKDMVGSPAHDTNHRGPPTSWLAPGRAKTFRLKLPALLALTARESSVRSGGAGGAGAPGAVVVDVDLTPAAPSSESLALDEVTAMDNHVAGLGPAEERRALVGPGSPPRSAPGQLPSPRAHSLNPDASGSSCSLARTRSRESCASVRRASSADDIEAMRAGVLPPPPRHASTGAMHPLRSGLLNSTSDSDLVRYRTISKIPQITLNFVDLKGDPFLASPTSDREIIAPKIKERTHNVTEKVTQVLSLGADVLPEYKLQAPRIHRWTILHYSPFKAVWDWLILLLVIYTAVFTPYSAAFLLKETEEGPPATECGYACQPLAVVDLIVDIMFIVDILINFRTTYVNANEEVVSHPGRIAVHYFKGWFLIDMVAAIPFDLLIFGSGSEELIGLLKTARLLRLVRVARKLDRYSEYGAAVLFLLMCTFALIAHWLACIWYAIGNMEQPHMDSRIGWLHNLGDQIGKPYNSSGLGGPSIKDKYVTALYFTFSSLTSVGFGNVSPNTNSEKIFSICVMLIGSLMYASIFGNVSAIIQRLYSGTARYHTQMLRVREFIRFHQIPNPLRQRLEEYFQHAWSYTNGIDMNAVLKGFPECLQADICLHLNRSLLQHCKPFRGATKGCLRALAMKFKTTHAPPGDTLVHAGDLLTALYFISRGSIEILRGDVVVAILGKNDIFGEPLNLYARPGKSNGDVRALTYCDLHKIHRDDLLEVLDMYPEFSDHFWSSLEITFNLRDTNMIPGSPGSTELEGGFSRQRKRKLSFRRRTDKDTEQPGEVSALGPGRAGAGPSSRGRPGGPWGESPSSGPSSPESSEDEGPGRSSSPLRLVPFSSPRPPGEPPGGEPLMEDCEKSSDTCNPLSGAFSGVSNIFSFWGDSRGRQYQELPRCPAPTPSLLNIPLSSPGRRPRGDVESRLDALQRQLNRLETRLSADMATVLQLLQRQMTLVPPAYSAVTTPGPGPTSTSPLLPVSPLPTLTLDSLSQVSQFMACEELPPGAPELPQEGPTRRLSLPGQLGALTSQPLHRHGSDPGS

Compound | hERG current change (%, negative = inhibition) at 10uM [%]
Cc1ccc2oc(-c3cccc(NC(=O)c4ccccn4)c3)nc2c1 | 17.1
COc1cc(C(=O)NCCC(=O)NCCN2CCOCC2)cc(OC)c1OC | 2.31
CCCn1c(CCc2ccccc2)nnc1SCC(=O)N1CCOCC1 | -0.0248
OC1(c2ccc3c(c2)OCO3)CCN(Cc2ccc(F)cc2)CC1 | -51.4
Cc1ccc(NC(=O)CN2C(=O)N/C(=C/c3ccccc3OCc3cccc(C(=O)O)c3)C2=O)cc1 | 22.6
Cc1[nH]n(-c2ccccc2)c(=O)c1C=Nc1ccc(S(=O)(=O)Nc2nccs2)cc1 | 23.2
CC(C)COc1ccc(CNC(=S)Nc2ccccc2)cc1Cl | 8.6
COc1ccc(CC(=O)NCCS(=O)(=O)N2CCN(c3ccccc3)CC2)cc1OC | -9.09
CN(C(=O)c1ccccc1C(=O)OCC(=O)NCc1ccccc1)C1CCCCC1 | -13.2
O=S1(=O)CCN(Cc2csc(-c3cccs3)n2)CC1 | 1.07
COc1ccc(/C=N/NC(=O)c2cccc(NC(=O)c3ccc(F)cc3)c2)c(C(=O)O)c1OC | 17.9
COc1ccccc1OCC(=O)N/N=C/c1cccc2cccnc12 | -6.65
O=C(CN1C(=O)CC(c2ccco2)Sc2ccccc21)NCC1CCCO1 (stereo not drawn) | -7.29
O=C(NCc1ccccc1)[C@@H]1C[C@H]1[C@@H](NP(=O)(c1ccccc1)c1ccccc1)c1ccccc1 | 11
O=C(CN1C(=O)c2cccc3cccc1c23)N1CCN(c2ccccc2)CC1 | -1.09
CC(C)N(Cc1ccccc1)C(=S)NC1CCCCC1 | -6.03
CCOC(=O)Cn1c(=O)oc2cc(S(=O)(=O)N3CCN(c4ccccn4)CC3)ccc21 | 16.7
Cc1cnc(NC(=O)c2ccco2)s1 | 13.9
CN1C(=O)CC(N2CCN(C(=O)CN3CCCC3)CC2)C1=O (stereo not drawn) | -2.63
O=C(NCCc1nc2ccccc2[nH]1)/C(=C/c1ccc2c(c1)OCO2)NC(=O)c1ccc(Cl)cc1Cl | -76.3
CC(=O)c1c(C)[nH]c(C(=O)Nc2ccc3c(c2)OCCO3)c1C | 20.2

Compound | hERG current change (%, negative = inhibition) at 10uM [%]
Cc1ccc2c(N)c(C(=O)c3ccccc3)sc2n1 | -0.442
C/C(=N\NC(=O)c1ccc(Br)cc1)c1cccc(NC(=O)c2cccnc2)c1 | -24.4
CCC1(C)Cc2ccccc2-c2nc(NCCO)n(-c3ccc(C)cc3)c(=O)c21 (stereo not drawn) | -25.1
Cc1ccc(CN2CCC(n3nccc3NC(=O)CCCc3ccccc3)CC2)o1 | -20.5
Cl.N=c1sccn1CC(=O)Nc1ccc2c(c1)CCC2 | -14.1
CCOc1cc(/C=N/NC(=O)CCn2nnc3ccccc32)ccc1O | -2.28
COc1ccc(/C=C/C(=O)OCC(=O)NC2CCS(=O)(=O)C2)cc1 (stereo not drawn) | -12.9
O=C(COc1ccccc1Cl)Nc1ccccc1C(=O)N1CCCCC1 | -20.1
Cc1ccc(C(=O)NCC(=O)NCC(c2cccs2)N2CCOCC2)cc1 (stereo not drawn) | 9.82
O=C(NCCc1ccccc1)C(=O)NCC1OCCCN1S(=O)(=O)c1cccs1 (stereo not drawn) | -2.83
O=C(NNS(=O)(=O)c1ccc(F)cc1)c1cnccn1 | 13.3
COC(=O)c1ccc(CN2CCc3ccc(NC(=O)c4ccncc4)cc3C2)cc1 | -15.1
Cc1cccc(N2C(=O)C(O)=C(C(=O)c3cccs3)C2c2ccc(F)cc2)n1 (stereo not drawn) | 14.9
Cc1nn(Cc2c(F)cccc2Cl)c(C)c1NC(=O)C1CC1 | 14.9
CC(=O)Nc1ccc2c(COC(=O)CC3Sc4ccccc4NC3=O)cc(=O)oc2c1 (stereo not drawn) | -9.75
CC(=O)N(C)Cc1ccc(C(=O)CCl)cc1 | 11.6
CCOC(=O)CNc1c(-c2ccc(O)cc2)nc2ccc(Cl)cn12.Cl | -39.7
Cc1n[nH]c(C)c1Sc1ccccc1N | 7.09
Cn1nc(C(F)(F)F)c(-c2ccccc2)c1NC(=O)CSCC(=O)O | 12.2
CCOC(=O)C1(CCc2ccccc2)CCN(C(=O)C2CCOCC2)CC1 | -53.1
CN(C)S(=O)(=O)c1cccc(C(=O)OCC(=O)Nc2sccc2C#N)c1 | -2.79

Compound | hERG current change (%, negative = inhibition) at 10uM [%]
Clc1ccc(-c2cnc(Oc3ccccc3)nc2)cc1 | 1.23
O=C(Nc1cccnc1)c1ccc(CSc2ccccc2)cc1 | 10.1
COc1ccc(CNC(=O)Cn2nc([N+](=O)[O-])c(Br)c2C)cc1OC | -10.2
O=C(O)c1cc(NC(=O)c2ccc(Cl)c([N+](=O)[O-])c2)cc(C(=O)O)c1 | 17.6
N#Cc1c(-c2ccccc2)c(-c2ccccc2)nn(CC(=O)NNC(=O)Nc2ccc(Cl)c(Cl)c2)c1=O | -1.35
COC(=O)c1ccc(/C=C2/C(=O)Oc3ccccc32)cc1 | 19.2
CCOC(=O)C1CCN(c2ccc([N+](=O)[O-])cc2S(=O)(=O)N2CCOCC2)CC1 | -44.9
COC(=O)C1=C(c2ccc(F)cc2OCc2ccccc2)C[C@@H]2CC[C@H]1N2C(=O)N1CCC(O)CC1 | -14.5
CC(CCc1ccccc1)NC(=O)c1ccc(C(=O)NC(C)CCc2ccccc2)cc1 (stereo not drawn) | 4.5
CCNc1nc(NCC)nc(N(C#N)CCOc2ccccc2)n1 | -55.1
O=C(CCC(=O)N1CCC2(CC1)OCCO2)Nc1nnc(C(F)(F)F)s1 | 12.3
Cc1cc(-c2csc(NC(=O)c3cccc(S(=O)(=O)N(C)C)c3)n2)c(C)n1-c1ccccc1 | 4.36
Cc1c(C(=O)N2CCC[C@H]2C(N)=O)oc2c(F)cccc12 | 22.2
S=c1[nH]cc(-c2ccccc2)n1-c1ccccc1 | 17.3
COC(=O)/C(C#N)=C1/C=Cc2ccccc2N1 | 8.35
Cn1c(Cn2cnc([N+](=O)[O-])n2)nnc1SCC(=O)Nc1cccc(Cl)c1 | -16.2
COc1ccc(CCN(C)C2CCCN(S(C)(=O)=O)C2)cc1OC (stereo not drawn) | -4.36
CCOC(=O)c1[nH]c2ccc(OC)cc2c1NC(=O)CN1CCc2ccccc2C1 | -12.4
O=C(OCC(=O)N1CCCCC1)c1cc(NS(=O)(=O)c2ccc(Cl)c([N+](=O)[O-])c2)ccc1O | 9.93
Cc1c(OCC(F)(F)F)ccnc1CSc1nc2ccccc2[nH]1 | 20.6
COc1ccc2ccc(O)c(CN3CCN(S(=O)(=O)c4cc([N+](=O)[O-])ccc4C)CC3)c2c1 | -4.29

Compound | hERG current change (%, negative = inhibition) at 10uM [%]
Cc1ccc(Nc2c(-c3ccccc3O)nc3ncccn23)cc1 | 8.52
Cn1c(O)c(/C=C/C=Nc2ccccc2)c(=O)n(C)c1=S | -2.32
CCN(CC)CCN1C(=O)C(O)=C(C(=O)c2cccs2)C1c1ccc(C)o1 (stereo not drawn) | 15.7
O=c1c2c(n3nnnc3n1Cc1ccccc1)-c1ccccc1CC21CCCC1 | 18.8
COc1cccc(C(=O)C2CCCN(Cc3cccn3-c3ccccn3)C2)c1 (stereo not drawn) | -76.5
CCn1cc(CNC(=O)c2cc(-c3cc(OC)ccc3OC)nc3ccccc23)c(C)n1 | -53.9
COc1ccccc1N1CCN(C(=O)c2ccc(Cn3c(=O)[nH]c4ccsc4c3=O)cc2)CC1 | 8.62
CCN(c1ccccc1)S(=O)(=O)c1cc2c(cc1C)NC(=O)CO2 | 4.21
Cc1ccn2c(C(=O)CSc3ccccc3Cl)c(C)nc2c1 | 7.33
COc1ccccc1N1CCN(C(=O)CCNC(=O)c2ccco2)CC1 | 3.06
Cc1ccc(NC(=O)CN2C(=O)NC3(CCCC3)C2=O)nc1 | -6.77
O=C(OCC(=O)N1CCCc2ccccc21)c1cccc(C(F)(F)F)c1 | -6.7
Cc1sc2nc(COC(=O)c3cccc(S(=O)(=O)N(C)c4ccccc4)c3)[nH]c(=O)c2c1C | 14.3
COc1ccc(Cn2c(C3CC3)nc3ccc(NC(C)=O)cc3c2=O)cc1 | 11.9
COc1ccc(C)cc1NC(=O)c1nnn(Cc2cccc(C(F)(F)F)c2)c1N | 11.9
C/C(=N\OC(=O)c1ccc(C)cc1)c1c(C)nc2cc(C)ccn12 | 27.5
Clc1ccc(-c2noc(CCCOc3ccccc3)n2)cc1 | 11.5
O=C(c1ccc2ccccc2c1)C1CCCN(C(=O)c2noc3c2CCCC3)C1 (stereo not drawn) | -0.959
CCc1ccc(CN2C(=O)c3ccccc3C2C(=O)NC(C)CC)cc1 (stereo not drawn) | 6.42
Cc1onc(-c2c(F)cccc2Cl)c1C(N)=S | 16.8
COc1cc(/C=C/C(=O)O)cc(S(=O)(=O)N2CCN(S(=O)(=O)c3ccc(Cl)cc3)CC2)c1OC | 26.2
